# Data: PMC4336329 (PLoS ONE, 2015)
# About 14,000 (4.5%) of roughly 310,000 compounds showed an effect of 50% or more. Effects have a minus sign here. The list shows a part of the results.
# Molecular target: human ether-à-go-go-related gene (hERG) potassium channel (human, UniProt Q12809)
# Experiment: primary screen, population patch clamp on CHO cells stably expressing hERG
# 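Note: peak tail current of the secondary pulse compared with the same well before compound.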
# human ether-à-go-go-related gene (hERG) potassium channel, sequence (Q12809 whole entry, looked up): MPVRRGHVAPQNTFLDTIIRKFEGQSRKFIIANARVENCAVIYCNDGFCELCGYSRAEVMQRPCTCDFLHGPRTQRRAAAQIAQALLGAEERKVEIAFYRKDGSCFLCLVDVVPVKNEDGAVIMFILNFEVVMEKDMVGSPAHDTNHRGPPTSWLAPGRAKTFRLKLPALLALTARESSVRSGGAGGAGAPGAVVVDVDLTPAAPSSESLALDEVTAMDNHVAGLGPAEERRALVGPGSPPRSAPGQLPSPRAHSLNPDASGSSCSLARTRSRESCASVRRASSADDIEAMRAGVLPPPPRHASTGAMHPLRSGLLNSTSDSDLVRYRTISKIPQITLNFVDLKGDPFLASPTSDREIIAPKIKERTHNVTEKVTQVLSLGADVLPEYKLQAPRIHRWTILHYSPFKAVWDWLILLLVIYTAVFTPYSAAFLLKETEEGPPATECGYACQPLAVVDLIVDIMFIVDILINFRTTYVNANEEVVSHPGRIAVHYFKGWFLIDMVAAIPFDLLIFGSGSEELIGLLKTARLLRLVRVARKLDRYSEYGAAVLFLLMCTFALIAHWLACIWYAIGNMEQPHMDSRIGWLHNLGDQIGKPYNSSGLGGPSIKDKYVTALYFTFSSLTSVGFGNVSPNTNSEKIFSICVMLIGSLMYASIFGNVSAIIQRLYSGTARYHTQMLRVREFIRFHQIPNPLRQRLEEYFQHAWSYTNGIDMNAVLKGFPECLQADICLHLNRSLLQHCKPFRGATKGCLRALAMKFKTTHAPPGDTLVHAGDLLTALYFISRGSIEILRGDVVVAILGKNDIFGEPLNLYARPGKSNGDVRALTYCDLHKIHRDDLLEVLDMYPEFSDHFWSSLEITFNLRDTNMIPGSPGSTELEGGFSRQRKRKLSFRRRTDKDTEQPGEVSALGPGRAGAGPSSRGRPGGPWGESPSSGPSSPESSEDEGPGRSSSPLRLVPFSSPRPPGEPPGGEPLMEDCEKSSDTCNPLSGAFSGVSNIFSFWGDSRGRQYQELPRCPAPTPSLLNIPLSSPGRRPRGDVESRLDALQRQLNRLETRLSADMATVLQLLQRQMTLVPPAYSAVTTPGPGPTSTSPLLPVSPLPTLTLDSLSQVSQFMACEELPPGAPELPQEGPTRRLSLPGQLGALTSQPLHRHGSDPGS
row,Compound,"hERG current change (%, negative = inhibition) at 10uM [%]"
1,CCn1c(SCC(=O)N2CCCc3ccccc32)nc2c(c1=O)SC(C)C2 (stereo not shown),-24.7
2,CC1C(=O)N2CCCc3cc(NC(=O)C(=O)NCc4cccnc4)cc1c32 (stereo not shown),9.89
3,COc1c(O)cnn(-c2ccccc2)c1=O,16.4
4,O=C(CSc1nn(-c2ccc(Cl)cc2)c(=S)s1)NCC1CCCO1 (stereo not shown),-0.435
5,O=C(CN1C(=O)NC2(CCc3ccccc32)C1=O)c1ccccc1 (stereo not shown),15.1
6,Cl.c1ccc2c(c1)NCCS2,8.05
7,CCC(C)(C)n1nnnc1C(c1ccc2ncccc2c1)N1CCN(c2nc3ccccc3s2)CC1 (stereo not shown),2.06
8,COc1ccc(/C=N/n2c(=S)n(C)c3ccccc32)cc1OC,-15.7
9,CC(C)c1nnc(NC(=O)c2cc3ccccc3o2)s1,11.1
10,COc1cc(CSc2ncn[nH]2)c(OC)cc1CSc1ncn[nH]1,2.02
11,Cc1cc(Cl)ccc1NC(=O)CSc1nnc(-c2ccncc2)n1Cc1ccco1,-52.8
12,O=C(CS(=O)c1cccc(C(F)(F)F)c1)Nc1ccccc1Cl (stereo not shown),-7.02
13,CCOc1ccc2nc(SCC(=O)Nc3cc(C)on3)c(C)cc2c1,11.9
14,O=C(N/N=C/c1c[nH]c2ccccc12)c1ccn[nH]1,18.9
15,Cc1nnc(Sc2c(N)n(C)c(=O)n(C)c2=O)s1,-7.72
16,O=C(Nc1cc(-c2nc3ncccc3o2)ccc1Cl)c1ccco1,-22.2
17,CC(C)=CCN1CCN(Cc2cc(C(C)C)n[nH]2)CC1CCO (stereo not shown),11.3
18,CC(C)CCCN1CCN=C1Nc1ccccc1,-3.11
19,O=C(OCn1nnc2ccccc2c1=O)c1cc(-c2ccccc2Cl)nc2ccccc12,12.8
20,Cc1cc(C(=O)Nc2cccc(/C=C/C(=O)O)c2)c(C)o1,-4.62
21,Cn1c(SCC(=O)c2ccc3c(c2)Cc2ccccc2-3)nnc1-c1ccccc1,7.89
22,CC(=O)N1Cc2ccccc2CC1C(=O)O (stereo not shown),-7.43

row,Compound,"hERG current change (%, negative = inhibition) at 10uM [%]"
1,COc1ccc(Br)cc1S(=O)(=O)N1CCN=C1C,-0.252
2,COc1cc(C(=O)NCc2nnc(SCC(=O)NC3CCCC3)o2)cc(OC)c1OC,9.56
3,CC(C)(C)OC(=O)N1CCC(NC(=O)c2nc[nH]c2C(=O)N2CCN(C(=O)OC(C)(C)C)CC2)CC1,9.85
4,COc1ccc(-c2ccc3oc(-c4ccc(OC)cc4)c(-c4cc(OC)c(OC)c(OC)c4)c3c2)cc1,0.835
5,Cl.NCC(O)c1cc(O)c(O)cc1F (stereo not shown),1.33
6,Clc1cccc(Cl)c1CON/C=N/c1ncnc2sccc12,0.651
7,COc1ccc(C(=O)Nc2ccc(C)c(S(=O)(=O)N3CCCCCC3)c2)cc1,-9.69
8,Cc1occc1-c1nnc(SCC(=O)Nc2ccccc2)n1C,9.72
9,COc1ccc(S(=O)(=O)N2CCCC2)c(Cl)c1Cl,-7.22
10,CCOC(=O)C/C(C)=N/NC(=O)Nc1ccccc1,-0.466
11,COc1ccc(C(=O)NC2(C(F)(F)F)NC(=O)N(CCCc3ccccc3)C2=O)cc1OC (stereo not shown),-19.9
12,CSc1nsc(SCC(=O)N2CCCc3ccccc32)n1,-34.7
13,COc1ccc(C(=O)Nc2nnc(SCC(=O)NC3CC3)s2)cc1,7.39
14,CCOC(=O)c1cc2c(C)[nH]c(C)c2cc(C(=O)OCC)c1=O,12.3
15,O=C(C(c1ccccc1)c1ccccc1)N1CCOCC1,0.742
16,CCOc1ccc(C(=O)NCC(=O)OCC(=O)N2CCC(C)CC2)cc1,-14.1
17,COc1ccc(/C(N)=N/OC(=O)c2ccc3c(c2)OCO3)cc1OC,-8.74
18,CCCN(C(=O)COC(=O)CNC(=O)c1ccc2ccccc2c1)c1c(N)n(Cc2ccccc2)c(=O)[nH]c1=O,5.31
19,C/C=C(\C)CN1CCN(c2ccccc2F)CC1,-7.54
20,O=[N+]([O-])c1cccc(/C=N/Nc2nccnc2Cl)c1,-16.5
21,CN1C(=O)/C(=C/c2ccccc2Cl)Sc2ccc(C(=O)NCc3cccnc3)cc21,-30.1
22,CCS(=O)(=O)N1Cc2ccccc2CC1C(=O)OCC(=O)N(C(C)C)C(C)C (stereo not shown),-1.99

row,Compound,"hERG current change (%, negative = inhibition) at 10uM [%]"
1,COc1ccccc1NC1=NC(C)(C)N=C(N)N1,23.2
2,COC(=O)[C@@]1(Cc2ccc(F)cc2)[C@H]2c3cc(C(=O)N(C)C)n(Cc4ccccc4)c3C[C@H]2CN1C(=O)c1ccccc1,-13.3
3,Cc1ccc(OCc2nnc(SCC(N)=O)n2N)cc1,3.47
4,COc1ccccc1CNc1ncnc2sccc12,19.9
5,CN(C)S(=O)(=O)c1ccc(NC(=O)c2cc3ccccc3o2)cc1,-3.15
6,C[C@H](N)C(=O)OCc1ccc([N+](=O)[O-])cc1.O=S(=O)(O)c1ccccc1,7.4
7,CCOC(=O)c1nc(C)n(-c2cc(OC)c(Cl)cc2Cl)n1,5.95
8,O=C(O)CC(NS(=O)(=O)c1c(F)cc(F)cc1Br)c1ccccc1Cl (stereo not shown),0.167
9,CCOC(=O)/C(C#N)=C/Nc1cc(C(C)(C)C)sc1C(C)=O,23.4
10,COC(=O)C1=C(N)Oc2cc(C)n(CCN3CCOCC3)c(=O)c2C1c1cccnc1 (stereo not shown),14.9
11,Cc1c(CN2CCCC(CO)(Cc3cccc(Cl)c3)C2)cnn1C (stereo not shown),-11.2
12,CCOC(=O)CSc1nnc(CSc2nc3ccccc3s2)n1C,0.37
13,C=CCN(C(=O)c1csnn1)C(C(=O)NC1CCCCC1)c1ccc(F)cc1 (stereo not shown),-5.43
14,COc1ccc(S(=O)(=O)N2CCOCC2)cc1NC(=O)CCNC(=O)c1ccc([N+](=O)[O-])cc1,-26
15,CC(C)C(NC(=O)c1ccc(S(=O)(=O)N2CCOCC2)cc1)c1nc2ccccc2[nH]1 (stereo not shown),-14.6
16,CC(=O)N1CCOc2ccc(S(=O)(=O)N3CCC(C(=O)NCc4ccc(C)cc4)CC3)cc21,-12.7
17,CN1C(=O)C2(OCC(C)([N+](=O)[O-])CO2)c2ccccc21 (stereo not shown),16.9
18,C#CCNC(=O)C1=C[C@H](C2CCCCC2)[C@@H](CCCO)[C@H](OCC)O1,6.17
19,Clc1ccc(Cc2nc(-c3cccnc3)no2)cc1,-16.1
20,COc1ccsc1C(=O)NCCN1CCOCC1,5.39
21,Cc1cccc(OCC(=O)Nc2ccc3c(c2)nc(CN2CCCCC2)n3C)c1.Cl,-25.3
22,CC(=O)c1ccc(NC(=O)C2CC(c3ccc(F)cc3)=NO2)cc1 (stereo not shown),-6.78

row,Compound,"hERG current change (%, negative = inhibition) at 10uM [%]"
1,CC(C)(C)OC(=O)N1CCC(c2c(C(=O)O)cnn2-c2ccccc2)CC1,11
2,COc1cccc(CN2CC(C(=O)N(C)Cc3ccc(C)cc3)CCC2=O)c1 (stereo not shown),-7.44
3,Cc1c(NC(=O)COc2c(F)c(F)c(F)c(F)c2F)c(=O)n(-c2ccccc2)n1C,0.328
4,CN(C)c1cc[n+](Cc2ccccc2)cc1.[Br-],-1.47
5,COc1cc2nc(Nc3ccc(C)c(C)c3)nc(N)c2cc1OC,-34.7
6,O=C(CSc1nncs1)Nc1ccc(Cl)cn1,-11.5
7,Cl.OC(CCCN1CCCCC1)(c1ccccc1)c1ccccc1,-44
8,CCn1c(=S)sc2c(=O)n(CC(=O)Nc3ccccc3C(F)(F)F)c(C)nc21,10.6
9,Cc1snc(SCC(=O)N/N=C(\N)COc2ccc(F)cc2)c1C#N,5.44
10,COc1ccccc1Cn1c(/C=C/c2ccccc2)nc2ccccc21,6.06
11,CCOC(=O)N1CCC(NC(=O)c2ccc(N3CCC4(CC3)OCCO4)c([N+](=O)[O-])c2)CC1,-11.5
12,CC(=O)c1c(C)[nH]c(C(=O)COc2cc(C)ccc2C(C)C)c1C,14.1
13,Cc1ccccc1Cn1cc(NC(=O)CSc2nc3c(c(C(F)(F)F)n2)CCc2ccccc2-3)cn1,2.96
14,Cc1ccc(C(=O)Nc2cccc(-c3ccc(N4CCOCC4)nn3)c2)cc1C,-20.9
15,NC(=O)C1CCCN(C(=O)c2ccc3oc(Cc4ccc(Cl)cc4)nc3c2)C1 (stereo not shown),8.01
16,COC(=O)COc1ccc2occ(C(C)=O)c2c1,-3.74
17,O=C(Nc1ccc(Cc2ccc(NC(=O)C3CC3)c(O)c2)cc1O)C1CC1,8.31
18,CC(C)Nc1nc(-c2ccncc2)nc(-c2ccc(Cl)cc2)c1C#N,13.7
19,COc1ccccc1C1(O)CC2CCC(C1)N2S(=O)(=O)c1ccc(C(C)=O)cc1 (stereo not shown),10.5
20,O=C(O)CC(NC(=O)C12CC3CC(CC(C3)C1)C2)c1ccc(OC2CCCC2)cc1 (stereo not shown),8.73
21,O=C(Nc1nccs1)C1CC(=O)N(c2ccc(F)cc2)C1 (stereo not shown),2.57
22,O=c1sc2ccccc2c(N2CCCCC2)c1[N+](=O)[O-],-8.52
